The text below walks through data of patent US20200199216A1 (KINDRED BIOSCIENCES, published 2020).

Values joined by “and” are separate entries in the source; they are usually repeats but may differ in a detail not shown here. Equal values may be shown once.

The target of the test is T1, canine IL17A-polyHis (canine, biotinylated (EZ-Link NHS-LC-biotin) in the biosensor assays).
T1 construct: also called biotinylated canine IL17A-polyHis; not shown: poly-His tag on the C-terminal
T1 chain: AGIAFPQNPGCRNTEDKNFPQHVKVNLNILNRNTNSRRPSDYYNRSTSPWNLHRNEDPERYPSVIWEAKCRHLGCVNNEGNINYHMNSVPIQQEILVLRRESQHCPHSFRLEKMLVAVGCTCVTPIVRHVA
The test is described as follows: BLI (Octet); biotinylated canine IL17A-polyHis on streptavidin sensors, several runs. Here is the method:
The binding affinity of canine IL17A-polyHis to canine IL17Ra ECD-huFc-polyHis was assessed using biolayer interferometry. Briefly, canine IL17A-polyHis was biotinylated and captured to streptavidin biosensors. The association of canine IL17Ra ECD-huFc-polyHis was monitored for 90 seconds. Dissociation was monitored for 600 seconds. A buffer only blank curve was subtracted to correct for any drift. The data were fit to a 1:1 binding model using ForteBio™ data analysis software to determine the kon, koff, and the Kd. The buffer for dilutions and all binding steps was: 20 mM phosphate, 150 mM NaCl, pH 7.2.

B1: canine IL17Ra ECD-huFc-polyHis (Fc fusion)
chain: MGRLGEGLNCTVKNSTCLDDSWIHPRNLTPSSPKDVQVHLDFAQTQHGDLLPIIGIRWTLQTDASILFLEGAELSVLQLNTNERVCVKFEFLSKLKHHHKRWHFTFSHFVVEPGQEYEVTVHHLPKPIPDGDPNHQSKNFLVPGCEDPRMRMTTPCVSSGSLWDPNITAEALEAHQLQVHFTLWNESAQYQILLTSFPHTENRSCFHRVLMVPEPTLKEHHQRANIMLTGSSSNWCCRHQVQIQPFFSSCLNDCLRHSVTVPCPEIPDAPVSIADYIGSENLYFQ[not shown - human IgG1 Fc and a few adjoining residues]
notes: It also holds a linker, human Fc and His tag
Regarding B1, the Kd was 1.5 nM and 4.2 nM.

For orientation: Kd means the free concentration of one partner at which half of the binding sites on the other are occupied at equilibrium, for simple one-to-one binding. Low readings indicate higher affinity, high ones lower affinity.
